The supplement of paper PMC10126150
Values marked as one replicate rest on one cluster of the flow cell; about a third of the high ones do not repeat.

What follows are sequences tested on ATP (assay: switch fluorescence ratio, 500 uM ATP over buffer (Cy3 cluster intensity, sum of 5 cycles each) (fold (ratio)); higher = stronger signal-on switching upon ATP binding; sequences stand for … in TCGTCGGCAGCGTCAGATGTGTATAAGAGACAGTTTTTTTTTTTTTTTTTTTTTTTTT…TC). Details: aptamer strand: ATP DNA aptamer (quencher-CACCTGGGGGAGTATTGCGGAGGAAGG + anchor), 100 nM annealed; ATP concentration: 500 uM; one replicate.
Method in brief: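 Exposure to 500 uM ATP lasted 15 min at 22 °C before imaging, and a selection-buffer image was taken beforehand, for Cy3-labelled switching-strand clusters on a modified Illumina MiSeq flow-cell annealed to 100 nM quencher-labelled ATP aptamer. Five buffer/ATP cycles were run with NaOH stripping and re-annealing between them. The fluorescence ratio per cluster is summed target-cycle over summed buffer-cycle Cy3 intensity, averaged per switch-domain sequence. Clusters outside 100-1000 RFU were excluded.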
CCCTCAGTCG was tested, and the switch fluorescence ratio was 1.19. With CCCTCTTGGG the switch fluorescence ratio was 1.02. In the case of CCCTGAATGT, the switch fluorescence ratio was 1.05. In the case of CCCTGAGTTC, the switch fluorescence ratio was 1.02. CCCTGCCAAC was tested, and the switch fluorescence ratio was 4.3. In the case of CCCTGCCTAA, the switch fluorescence ratio was 1.14. In the case of CCCTGGCTGT, the switch fluorescence ratio was 1.17. Sequence CCCTGGGACA has a switch fluorescence ratio of 0.974. Sequence CCCTGGTTCG has a switch fluorescence ratio of 1.03. CCCTGTGCCC gave a switch fluorescence ratio of 1.05. CCCTTCAGGG gave a switch fluorescence ratio of 0.978. CCCTTCCAAA was tested, and the switch fluorescence ratio was 1. Work on CCCTTGGCTA yielded a switch fluorescence ratio of 1.06. CCCTTGGGAC gave a switch fluorescence ratio of 0.975. Work on CCCTTGGTTG yielded a switch fluorescence ratio of 1.09. Work on CCCTTTCACG yielded a switch fluorescence ratio of 1.07. CCCTTTTATG was tested, and the switch fluorescence ratio was 1.02. In the case of CCGAACCTTT, the switch fluorescence ratio was 1.12. Work on CCGAAGGCCT yielded a switch fluorescence ratio of 0.884. Work on CCGAATGTGA yielded a switch fluorescence ratio of 2.27. Work on CCGAATGTTA yielded a switch fluorescence ratio of 1.29. CCGACAGGAC gave a switch fluorescence ratio of 2.43. CCGACAGGCC gave a switch fluorescence ratio of 1.62. In the case of CCGACTTATG, the switch fluorescence ratio was 1.06. CCGACTTGTC showed a switch fluorescence ratio of 1.12. CCGAGACGAG showed a switch fluorescence ratio of 1.01. CCGAGCACGG gave a switch fluorescence ratio of 2.78. In the case of CCGAGCGCTG, the switch fluorescence ratio was 4.52. For CCGAGGGTGG, the switch fluorescence ratio was 1.03. With CCGAGTTAT the switch fluorescence ratio was 1.31. For CCGATAAAGG, the switch fluorescence ratio was 1.48. CCGATACGA was tested, and the switch fluorescence ratio was 1.81. Sequence CCGATATCAC has a switch fluorescence ratio of 2.45. For CCGATCGGGT, the switch fluorescence ratio was 1.67. CCGATGGAGC showed a switch fluorescence ratio of 1.7. For CCGCACGGGG, the switch fluorescence ratio was 1.45. With CCGCAGAGGG the switch fluorescence ratio was 1.78. In the case of CCGCATCAAA, the switch fluorescence ratio was 5.04. Work on CCGCCCGGGG yielded a switch fluorescence ratio of 1.2. Sequence CCGCCGAATA has a switch fluorescence ratio of 4.92. In the case of CCGCCGCGCG, the switch fluorescence ratio was 2.58. Work on CCGCGAGCGA yielded a switch fluorescence ratio of 1.86. CCGCGATGGA gave a switch fluorescence ratio of 2.1. For CCGCGCGATG, the switch fluorescence ratio was 3.5. CCGCGTTCGG was tested, and the switch fluorescence ratio was 1.1. In the case of CCGCTAGGCA, the switch fluorescence ratio was 1.09. CCGCTAGGGA gave a switch fluorescence ratio of 0.989. CCGCTCATTT gave a switch fluorescence ratio of 1.27. With CCGCTGAAAG the switch fluorescence ratio was 1.06. For CCGCTTAAAG, the switch fluorescence ratio was 1.83. In the case of CCGCTTTA, the switch fluorescence ratio was 4.26. With CCGGAAACAT the switch fluorescence ratio was 1.12. CCGGACGAAG showed a switch fluorescence ratio of 0.871. For CCGGAGAGTA, the switch fluorescence ratio was 1.94. CCGGAGGCTA showed a switch fluorescence ratio of 3.19. In the case of CCGGATGGGA, the switch fluorescence ratio was 3.88. For CCGGATGTT, the switch fluorescence ratio was 1.23. With CCGGATTTGA the switch fluorescence ratio was 0.996. In the case of CCGGCAAGT, the switch fluorescence ratio was 2.19. Work on CCGGCCCCTA yielded a switch fluorescence ratio of 1.24. CCGGCCCCTT was tested, and the switch fluorescence ratio was 1.16. Sequence CCGGCGGCTG has a switch fluorescence ratio of 1.03. Work on CCGGCTCGCC yielded a switch fluorescence ratio of 1.04. Sequence CCGGGAAAAC has a switch fluorescence ratio of 1.06. CCGGGAAACC gave a switch fluorescence ratio of 1.05. In the case of CCGGGAAAGA, the switch fluorescence ratio was 0.975. For CCGGGAGAGT, the switch fluorescence ratio was 1.09. In the case of CCGGGATGAA, the switch fluorescence ratio was 1.09. For CCGGGCGAAC, the switch fluorescence ratio was 1.64. CCGGGCGCCT showed a switch fluorescence ratio of 0.995. With CCGGGCTAAT the switch fluorescence ratio was 2.48. CCGGGCTCGG showed a switch fluorescence ratio of 0.97. For CCGGGGCATT, the switch fluorescence ratio was 2.01. For CCGGGGCCCG, the switch fluorescence ratio was 1.04. CCGGGGGTAT gave a switch fluorescence ratio of 1.01. In the case of CCGGGGTAGT, the switch fluorescence ratio was 2.23.
